Columns and labels:
Type in all cases: in vivo
[1] = tested on: Blumeria graminis f. sp. hordei; assay: Test Example D: Powdery mildew on barley; settings: for Test D control value: Powdery mildew on barley; for control value, Test D (powdery mildew on barley): Table 7, Test D
Alternaia brassicicola = assay: Test Example C: Alternaria sooty spot on cabbage; settings: for Test C control value: Alternaria sooty spot on cabbage; for control value, Test C (Alternaria sooty spot on cabbage): Table 7, Test C
Botrytis cinerea = assay: Test Example B: Gray mold on tomato; settings: for Test B control value: Gray mold on tomato; for control value, Test B (gray mold on tomato): Table 7, Test B
Puccinia recondita = assay: Test Example E: Brown rust on wheat; settings: for Test E control value: Brown rust on wheat; for control value, Test E (brown rust on wheat): Table 7, Test E
Plasmopara viticola = assay: Test Example G: Downy mildew on vine; settings: for Test G control value: Downy mildew on vine, 250 ppm sprayed, 7 to 10 days after inoculation; for control value, Test G (downy mildew on vine): 250 ppm sprayed (2.5 ml/pot) before inoculation, assessed 7 to 10 days after inoculation
[2] = class of control value, Table 7

## Cc1cnn(-c2cc(Br)c(=O)n(CC(F)F)c2-c2ccccc2Br)c1Cl [Compound 409]
[1]; [2]
  Test D control value (powdery mildew on barley): H (H shows the control value more than 50%)
Alternaia brassicicola; [2]
  Test C control value (Alternaria sooty spot on cabbage): H (H shows the control value more than 50%)
Botrytis cinerea; [2]
  Test B control value (gray mold on tomato): H (H shows the control value more than 50%)
Puccinia recondita; [2]
  Test E control value (brown rust on wheat): H (H shows the control value more than 50%)
Plasmopara viticola; 250 ppm spray, 2.5 ml/pot, investigated 7 to 10 days after inoculation
  Test G control value (downy mildew on vine): L (L shows the control value of 50% or less)

## CCn1c(-c2c(F)cc(F)cc2F)c(-n2ncnc2I)cc(Cl)c1=O [Compound 48]
[1]
  Test D control value: H (H shows the control value more than 50%)
Alternaia brassicicola
  Test C control value: H (H shows the control value more than 50%)
Botrytis cinerea
  Test B control value: H (H shows the control value more than 50%)
Puccinia recondita
  Test E control value: H (H shows the control value more than 50%)
Plasmopara viticola; 2.5 ml/pot
  Test G control value: H (H shows the control value more than 50%)

## CCn1c(-c2ccc(F)cc2Cl)c(-c2ocnc2C)cc(Cl)c1=O [Compound 38]
[1]
  Test D control value: L (L shows the control value of 50% or less)
Alternaia brassicicola
  Test C control value: L (L shows the control value of 50% or less)
Botrytis cinerea
  Test B control value: L (L shows the control value of 50% or less)
Puccinia recondita
  Test E control value: L (L shows the control value of 50% or less)
Plasmopara viticola; 2.5 ml/pot
  Test G control value: L (L shows the control value of 50% or less)

## CCn1c(-c2c(F)cc(F)cc2F)c(-n2cccc2)cc(Cl)c1=O [Compound 132]
[1]
  Test D control value: H (H shows the control value more than 50%)
Alternaia brassicicola
  Test C control value: H (H shows the control value more than 50%)
Botrytis cinerea
  Test B control value: H (H shows the control value more than 50%)
Puccinia recondita
  Test E control value: H (H shows the control value more than 50%)
Plasmopara viticola; 2.5 ml/pot
  Test G control value: H (H shows the control value more than 50%)

## CCn1c(-c2c(F)cc(F)cc2F)c(-c2cnco2)cc(Br)c1=O [Compound 89]
[1]
  Test D control value: L (L shows the control value of 50% or less)
Alternaia brassicicola
  Test C control value: H (H shows the control value more than 50%)
Botrytis cinerea
  Test B control value: H (H shows the control value more than 50%)
Puccinia recondita
  Test E control value: H (H shows the control value more than 50%)
Plasmopara viticola; 2.5 ml/pot
  Test G control value: L (L shows the control value of 50% or less)

## CCn1c(-c2c(F)cccc2F)c(C2OCCO2)cc(Cl)c1=O [Compound 13]
[1]
  Test D control value: L (L shows the control value of 50% or less)
Alternaia brassicicola
  Test C control value: H (H shows the control value more than 50%)
Botrytis cinerea
  Test B control value: H (H shows the control value more than 50%)
Puccinia recondita
  Test E control value: H (H shows the control value more than 50%)
Plasmopara viticola; 2.5 ml/pot
  Test G control value: L (L shows the control value of 50% or less)

## Cc1cnn(-c2cc(Br)c(=O)n(CC(F)F)c2-c2ccc(F)cc2Br)c1Cl [Compound 341]
[1]
  control value, Test D (powdery mildew on barley): H (H shows the control value more than 50%)
Alternaia brassicicola
  control value, Test C (Alternaria sooty spot on cabbage): H (H shows the control value more than 50%)
Botrytis cinerea
  control value, Test B (gray mold on tomato): H (H shows the control value more than 50%)
Puccinia recondita
  control value, Test E (brown rust on wheat): H (H shows the control value more than 50%)
Plasmopara viticola
  control value, Test G (downy mildew on vine): L (L shows the control value of 50% or less)

## Cc1cnn(-c2cc(Cl)c(=O)n(C)c2-c2c(F)cccc2F)c1Cl [Compound 187]
[1]
  control value, Test D (powdery mildew on barley): H (H shows the control value more than 50%)
Alternaia brassicicola
  control value, Test C (Alternaria sooty spot on cabbage): H (H shows the control value more than 50%)
Botrytis cinerea
  control value, Test B (gray mold on tomato): H (H shows the control value more than 50%)
Puccinia recondita
  control value, Test E (brown rust on wheat): H (H shows the control value more than 50%)
Plasmopara viticola
  control value, Test G (downy mildew on vine): L (L shows the control value of 50% or less)

## CCn1c(-c2ccccc2Cl)c(-n2cnc(Cl)c2Cl)cc(Cl)c1=O [Compound 209]
[1]
  control value, Test D (powdery mildew on barley): H (H shows the control value more than 50%)
Alternaia brassicicola
  control value, Test C (Alternaria sooty spot on cabbage): H (H shows the control value more than 50%)
Botrytis cinerea
  control value, Test B (gray mold on tomato): H (H shows the control value more than 50%)
Puccinia recondita
  control value, Test E (brown rust on wheat): H (H shows the control value more than 50%)
Plasmopara viticola
  control value, Test G (downy mildew on vine): L (L shows the control value of 50% or less)
